The values that follow come from article PMC4336329 (PLoS ONE, 2015).

Each structure is given as a SMILES string. Hit rate of the full screen: of about 310,000 compounds, about 2,200 (0.71%) showed an effect of 50% or more. Effects have a minus sign here. The list shows a part of the results.

human ether-à-go-go-related gene (hERG) potassium channel, sequence (Q12809 whole entry, looked up): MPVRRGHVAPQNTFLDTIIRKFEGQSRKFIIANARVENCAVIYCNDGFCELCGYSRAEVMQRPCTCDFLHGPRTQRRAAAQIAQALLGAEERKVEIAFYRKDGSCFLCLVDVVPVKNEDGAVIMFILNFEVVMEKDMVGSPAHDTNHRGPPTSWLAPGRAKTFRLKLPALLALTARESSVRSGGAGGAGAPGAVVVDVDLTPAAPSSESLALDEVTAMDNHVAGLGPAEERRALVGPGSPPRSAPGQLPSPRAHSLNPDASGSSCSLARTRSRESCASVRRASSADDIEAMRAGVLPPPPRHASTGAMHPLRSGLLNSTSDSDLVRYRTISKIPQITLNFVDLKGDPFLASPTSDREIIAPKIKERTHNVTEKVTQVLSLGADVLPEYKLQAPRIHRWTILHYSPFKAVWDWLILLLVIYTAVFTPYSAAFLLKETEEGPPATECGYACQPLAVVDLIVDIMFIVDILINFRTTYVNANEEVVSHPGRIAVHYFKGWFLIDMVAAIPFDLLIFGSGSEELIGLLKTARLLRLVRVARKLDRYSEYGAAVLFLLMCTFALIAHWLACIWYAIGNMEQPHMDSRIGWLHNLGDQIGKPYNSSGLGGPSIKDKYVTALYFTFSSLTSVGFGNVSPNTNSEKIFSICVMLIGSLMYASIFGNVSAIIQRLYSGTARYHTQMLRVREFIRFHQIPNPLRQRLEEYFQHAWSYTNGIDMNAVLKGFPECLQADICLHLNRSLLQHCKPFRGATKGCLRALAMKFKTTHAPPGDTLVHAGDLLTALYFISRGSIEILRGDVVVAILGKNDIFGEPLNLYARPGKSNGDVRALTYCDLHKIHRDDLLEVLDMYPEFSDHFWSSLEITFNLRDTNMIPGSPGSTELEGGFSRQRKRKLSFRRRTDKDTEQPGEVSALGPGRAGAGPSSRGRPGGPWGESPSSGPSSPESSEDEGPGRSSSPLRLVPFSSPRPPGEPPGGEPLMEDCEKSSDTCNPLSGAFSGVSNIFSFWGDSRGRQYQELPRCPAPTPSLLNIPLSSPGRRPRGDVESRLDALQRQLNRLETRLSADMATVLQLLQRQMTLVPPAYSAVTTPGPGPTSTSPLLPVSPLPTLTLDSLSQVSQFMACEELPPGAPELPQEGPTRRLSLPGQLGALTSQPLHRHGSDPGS

The test concerns the target human ether-à-go-go-related gene (hERG) potassium channel (human, UniProt Q12809). Nature of the test: primary screen, population patch clamp on CHO cells stably expressing hERG.
Turning to `O=C(Nc1ccc(Cl)cn1)c1ccccc1F`, the “hERG current change (%, negative = inhibition) at 1uM” value worked out at 8.1%.

With `C=CCNC(=O)c1ccc(-c2nc(-c3ccccc3)cs2)cc1`, the “hERG current change (%, negative = inhibition) at 1uM” value was determined as 1.23%.

As for `COc1ccc(Oc2nnc(C)c3ccccc23)cc1`, the “hERG current change (%, negative = inhibition) at 1uM” value is given as 5.36%.

Take `CC(C)CCN(C(=O)COc1ccc(C#N)cc1)c1c(N)n(Cc2ccccc2)c(=O)[nH]c1=O`: the “hERG current change (%, negative = inhibition) at 1uM” value turned out to be 8.82%.

As to `CCOC(=O)C1(c2ccccc2)CCN(CCC(=O)Nc2ccc(C(=O)OC)cc2)CC1`, the “hERG current change (%, negative = inhibition) at 1uM” value is on record as -8.16%.

Consider `Cc1ccc(S(=O)(=O)N(CC(=O)N/N=C/c2ccco2)Cc2ccccc2)cc1`, for which the “hERG current change (%, negative = inhibition) at 1uM” value was found to be 6.15%.

`CC(=O)O[C@]1(c2ccccc2)CCN(C)[C@H]2CCCC[C@@H]21.Cl`: the “hERG current change (%, negative = inhibition) at 1uM” value stood at 17.6%.

As to `COC(=O)CN1C(=O)N/C(=C/c2cc(Cl)c(OC)c(OC)c2)C1=O`, the “hERG current change (%, negative = inhibition) at 1uM” value is recorded as 3.77%.

Take `CCCc1[nH]nc2c1C(CCC)C(C#N)=C(N)O2` (centres unmarked): the “hERG current change (%, negative = inhibition) at 1uM” value amounted to 3.08%.

As to `CCCc1cc(C(=O)N2CCCC(N3CCN(c4ccccc4F)CC3)C2)n(C)n1` (centres unmarked), the “hERG current change (%, negative = inhibition) at 1uM” value is reported as -1.55%.

Regarding `O=c1c(Cc2ccc(F)cc2)c(O)ccn1Cc1ccc(Cl)cc1Cl`, the “hERG current change (%, negative = inhibition) at 1uM” value came out at 10.3%.

Turning to `Cl.O=C(c1ccco1)N(Cc1ccccc1)Cc1ccccn1`, the “hERG current change (%, negative = inhibition) at 1uM” value is recorded as 17.3%.

As for `CCCC12CN3CC(C)(CN(C1)C3c1ccc(OC(C)C)cc1)C2=O` (centres unmarked), the “hERG current change (%, negative = inhibition) at 1uM” value came out at 5.03%.

As to `O=C(c1ccccc1)c1ccc2nc(-c3ccco3)c(-c3ccco3)nc2c1`, the “hERG current change (%, negative = inhibition) at 1uM” value was 2.33%.

With `CCOc1cc(C(=S)N2CCCCC2)ccc1OCC(=O)NCc1ccccc1`, the “hERG current change (%, negative = inhibition) at 1uM” value is -1.67%.

Take `CCOC(=O)c1ccc(-n2c(CC)nc3ccccc3c2=O)cc1`: the “hERG current change (%, negative = inhibition) at 1uM” value was 4.73%.

On to `Cc1nn(-c2ccccc2)c(C)c1C(=O)OCC(=O)N(C)c1c(N)n(Cc2ccccc2)c(=O)[nH]c1=O`, for which the “hERG current change (%, negative = inhibition) at 1uM” value is 2.85%.

For the compound `CN(C)C=O.O=C(O)c1cccc(-n2c(/C=C/c3cccc([N+](=O)[O-])c3)nc3ccccc3c2=O)c1`, the “hERG current change (%, negative = inhibition) at 1uM” value came to 14.7%.

Turning to `CC(Oc1ccc2c3c(c(=O)oc2c1)CCCC3)C(=O)NCc1cccnc1` (centres unmarked), the “hERG current change (%, negative = inhibition) at 1uM” value turned out to be 15.8%.

For the compound `O=C(CN1C(=O)c2ccccc2S1(=O)=O)NCCc1ccccc1`, the “hERG current change (%, negative = inhibition) at 1uM” value came out at 11.9%.

As to `COc1ccccc1CN1C(=S)SC(C)(C)C1NO` (centres unmarked), the “hERG current change (%, negative = inhibition) at 1uM” value was -10.5%.

`Cc1cc(OCCCn2cnc3ccccc3c2=O)ccc1[N+](=O)[O-]`: the “hERG current change (%, negative = inhibition) at 1uM” value is 4.63%.

`CC1SCCN1S(=O)(=O)c1ccc2ccccc2c1` (centres unmarked): the “hERG current change (%, negative = inhibition) at 1uM” value is on record as 7.89%.

For `Cc1cccc(CN2CCC(CNC(=O)Cn3ncc4c([nH]c5ccccc54)c3=O)CC2)c1`, the “hERG current change (%, negative = inhibition) at 1uM” value is on record as -0.515%.

Consider `CCNC(=O)NC(=O)C(C)OC(=O)c1c(C)nn(Cc2ccccc2)c1Cl` (centres unmarked), for which the “hERG current change (%, negative = inhibition) at 1uM” value is 2.25%.

Take `O=C(C1=C[C@H](c2ccc3c(c2)OCO3)C[C@H](OCc2ccc(CO)cc2)O1)N1CCOCC1`: the “hERG current change (%, negative = inhibition) at 1uM” value is given as 9.65%.

As to `O=C(CNC(=O)c1ccc(S(=O)(=O)N2CCCC2)cc1)N/N=C/c1ccccc1Cl`, the “hERG current change (%, negative = inhibition) at 1uM” value is on record as -1.35%.

For `CCCC(C)NC(=O)c1ccc(-c2ccccc2)cc1` (centres unmarked), the “hERG current change (%, negative = inhibition) at 1uM” value is 14%.

For `CCOc1cc(C2C(C(=O)N3CCOCC3)=C(C)NC3=C2C(=O)CCC3)ccc1O` (centres unmarked), the “hERG current change (%, negative = inhibition) at 1uM” value turned out to be 12.4%.

`COC(=O)c1nn(-c2cccc(Cl)c2)ccc1=O`: the “hERG current change (%, negative = inhibition) at 1uM” value came to 7.18%.

`CN1OC(Cn2cc(C#N)c(=O)n(C)c2=O)CC1c1ccccc1` (centres unmarked): the “hERG current change (%, negative = inhibition) at 1uM” value is given as 16.2%.

In the case of `O=C(NN1C(=O)C2C3C=CC(C3)C2C1=O)c1ccncc1` (centres unmarked), the “hERG current change (%, negative = inhibition) at 1uM” value was -1.02%.

In the case of `CC(C)CCn1c(N)c(C(=O)NCc2cccs2)c2nc3ccccc3nc21`, the “hERG current change (%, negative = inhibition) at 1uM” value is -1.26%.

Turning to `OC1CCN(Cc2cccc(Oc3ccccc3)c2)CC1`, the “hERG current change (%, negative = inhibition) at 1uM” value is given as 19%.

Regarding `O=C(O)Cn1c(SCc2cccc3ccccc23)nc2ccccc21`, the “hERG current change (%, negative = inhibition) at 1uM” value was 8.15%.

On to `O=C(Nc1ccccc1C(=O)NC(Cc1ccccc1)C(=O)O)c1ccccc1` (centres unmarked), for which the “hERG current change (%, negative = inhibition) at 1uM” value was 15.6%.

On to `O=C1CN(C(=O)COC(=O)CCS(=O)(=O)c2ccccc2)c2ccccc2N1`, for which the “hERG current change (%, negative = inhibition) at 1uM” value is reported as 15.7%.

In the case of `C1=C2C[N+]3(CCCC3)CC2Cc2ccc3ccccc3c21.[Br-]` (centres unmarked), the “hERG current change (%, negative = inhibition) at 1uM” value amounted to 12.4%.

Consider `CC(SCc1ccccc1)C(=O)NC1CCCC1` (centres unmarked), for which the “hERG current change (%, negative = inhibition) at 1uM” value is reported as 6.51%.

For `Cc1nn2c(-c3ccncc3)ccnc2c1Cl`, the “hERG current change (%, negative = inhibition) at 1uM” value stood at 10.9%.

On to `Cc1ccc2c(CSc3nc4ccccc4c(=O)n3CCCO)cc(=O)oc2c1C`, for which the “hERG current change (%, negative = inhibition) at 1uM” value was determined as 18.4%.

For `Clc1ccc2nc(CSc3nc4ccccc4o3)cn2c1`, the “hERG current change (%, negative = inhibition) at 1uM” value is listed as 2.36%.

Turning to `O=C1CCCCC1C(Nc1ccc(Br)cc1)c1ccccc1` (centres unmarked), the “hERG current change (%, negative = inhibition) at 1uM” value is on record as 8.17%.

`CCCCNC(=O)c1cc2c(-c3ccc(Cl)cc3)nn(C)c2s1`: the “hERG current change (%, negative = inhibition) at 1uM” value stood at 5.97%.
